# Experimental data as given in US20140275511A1, “PURIFICATION OF […]” (priority 2013, published 2014).
# Tests used:
# [1] = moderate to high pH cation fractions
# Text: First, the fermentation broth is preferably adjusted in pH to 4.0±0.5. Bayer recommends using acetic acid. We have found this useful. Broth which is frozen and later thawed will tend to lose some NikZ potency. […] It is preferable to use fresh broth.
# At this point, Bayer and Shaman teach acidifying the cation eluate to pH 4. […] The AEX column preferably is loaded with material at pH about 8.0.
# [2] = well stoppered brown bottle, 2-8° C.
# Description: An alternative method of concentration is by rotary evaporation. It is highly preferable to use a high vacuum, better than 29 inches of mercury. Less than 50 milliTorr is desirable, and particularly 10-20 milliTorr. Bath temperature should be 35° C. for the first 50% volume reduction, then can be raised to 45° C. With experience, these temperatures can be increased a bit. When suitably concentrated, the material can be lyophilized. Drying in a vacuum oven at up to 60° C. for 24 hours should get the moisture to less than 6%. 3 to 4% moisture is preferable. The material can be stored in a well closed vessel for long periods.
compound,measurement,setting,value
C[C@@H]([C@H](N)C(=O)N[C@H](C(=O)O)[C@H]1O[C@@H](n2ccc(=O)[nH]c2=O)[C@H](O)[C@@H]1O)[C@H](O)c1ccc(O)cn1 [Nikkomycin Z],stability in cation exchange eluate fractions,[1],not stable for long
same,storage stability of dried material,[2],for years without undue degradation
